Experimental data published in the CheMixHub viscosity set.
The source gives many values for each of these; only a part stands here.

Assay: xn = mol fraction of the nth substance listed
Conditions: 101 kPa

CC(C)CCO + c1ccccc1
Conditions	viscosity [mPa·s]
293.15 K, x1 = 0.00621	0.645
293.15 K, x1 = 0.01197	0.6446
293.15 K, x1 = 0.01732	0.6443
293.15 K, x1 = 0.02484	0.6445
293.15 K, x1 = 0.03869	0.6473
293.15 K, x1 = 0.0496	0.6505
293.15 K, x1 = 0.05643	0.6533
293.15 K, x1 = 0.06199	0.655
293.15 K, x1 = 0.08846	0.6673
293.15 K, x1 = 0.1319	0.6935
293.15 K, x1 = 0.1854	0.7321
293.15 K, x1 = 0.2141	0.7572
293.15 K, x1 = 0.2419	0.7833
293.15 K, x1 = 0.3032	0.855
293.15 K, x1 = 0.4012	1.006
293.15 K, x1 = 0.4599	1.115
293.15 K, x1 = 0.6381	1.661
293.15 K, x1 = 0.7821	2.438
293.15 K, x1 = 0.8	2.03
293.15 K, x1 = 0.85	2.345
293.15 K, x1 = 0.8897	3.245
293.15 K, x1 = 0.9	2.775
293.15 K, x1 = 0.95	3.399
298.15 K, x1 = 0.8	1.838
298.15 K, x1 = 0.85	2.11
298.15 K, x1 = 0.9	2.476
298.15 K, x1 = 0.95	2.995
303.15 K, x1 = 0.75	1.486
303.15 K, x1 = 0.8	1.67
303.15 K, x1 = 0.85	1.905
303.15 K, x1 = 0.9	2.217
303.15 K, x1 = 0.95	2.651
308.15 K, x1 = 0.75	1.359
308.15 K, x1 = 0.8	1.52
308.15 K, x1 = 0.85	1.723
308.15 K, x1 = 0.9	1.99
308.15 K, x1 = 0.95	2.354
313.15 K, x1 = 0.75	1.246
313.15 K, x1 = 0.8	1.386
313.15 K, x1 = 0.85	1.563
313.15 K, x1 = 0.9	1.791
313.15 K, x1 = 0.95	2.097
318.15 K, x1 = 0.75	1.144
318.15 K, x1 = 0.8	1.267
318.15 K, x1 = 0.85	1.421
318.15 K, x1 = 0.9	1.616
318.15 K, x1 = 0.95	1.874
323.15 K, x1 = 0.75	1.052
323.15 K, x1 = 0.8	1.161
323.15 K, x1 = 0.85	1.294
323.15 K, x1 = 0.9	1.462
323.15 K, x1 = 0.95	1.68
